From the supplement of paper PMC3334620
In all, about 33,000 sequences were measured (“E-score (-0.5 to 0.5)”: median about -0.011, highest 2% from about 0.28 on). Some of the results follow.

target: T1, Gcr1 (UniProt P07261); experiment: PBM E-score (8-mer binding enrichment) (E-score (-0.5 to 0.5)); higher = stronger / more preferred TF binding; most listed sequences are background and not binding sites; conditions: protein concentration: 100 nM; construct: GST-full length
T1 sequence: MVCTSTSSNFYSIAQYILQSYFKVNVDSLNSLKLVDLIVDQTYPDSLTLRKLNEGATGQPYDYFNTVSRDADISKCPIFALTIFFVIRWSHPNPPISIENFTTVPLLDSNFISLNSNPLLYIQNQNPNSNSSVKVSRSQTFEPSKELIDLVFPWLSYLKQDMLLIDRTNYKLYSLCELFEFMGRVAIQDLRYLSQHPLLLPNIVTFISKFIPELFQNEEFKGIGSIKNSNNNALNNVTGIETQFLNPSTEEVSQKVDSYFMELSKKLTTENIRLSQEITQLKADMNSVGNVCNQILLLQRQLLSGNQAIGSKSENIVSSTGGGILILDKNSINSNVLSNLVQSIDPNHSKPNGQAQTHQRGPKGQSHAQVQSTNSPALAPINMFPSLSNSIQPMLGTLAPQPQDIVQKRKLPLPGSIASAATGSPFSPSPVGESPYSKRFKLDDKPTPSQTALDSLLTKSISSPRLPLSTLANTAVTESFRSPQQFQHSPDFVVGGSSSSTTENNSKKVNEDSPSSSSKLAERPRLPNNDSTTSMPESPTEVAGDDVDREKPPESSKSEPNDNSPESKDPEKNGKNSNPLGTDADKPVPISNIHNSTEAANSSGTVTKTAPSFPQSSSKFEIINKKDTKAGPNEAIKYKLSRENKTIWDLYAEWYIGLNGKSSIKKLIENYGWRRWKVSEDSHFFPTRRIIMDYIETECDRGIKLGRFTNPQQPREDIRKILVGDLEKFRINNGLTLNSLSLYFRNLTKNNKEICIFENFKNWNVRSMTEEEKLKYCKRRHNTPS
How it was run: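 For each ungapped eight-base word taken together with its reverse complement, the Universal PBM Analysis Suite assigned an E-score. Binding data came from GST-tagged yeast transcription factors, applied at about 100-200 nM, on universal all-10-mer Agilent arrays made double-stranded by primer extension. Fluorescent anti-GST marked bound protein, and scans were normalised with masliner.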

Sequence | PBM E-score
TCGATGAA | -0.136
TAGCGGGA | 0.0585
GCTACAAC | 0.0291
CGCTCGTA | 0.131
TAACTGCA | -0.114
CTACAATA | 0.1
AAGTGAGA | -0.107
CGGAACGC | 0.117
AGCCTGGC | -0.15
GCAGGGGA | -0.102
GTAGCCCA | 0.236
CTGCCTGC | 0.00094
CACCCCTA | 0.158
AGTAGACC | -0.17
CGCTTGGC | -0.137
CGAGACTA | 0.0202
AGTTTAAC | -0.0771
GATGCGGC | 0.299
GCTATAGA | -0.1
CGGACCTC | -0.241
CCGGAGTC | 0.176
CAATATGA | 0.0529
CACCGCCG | -0.0149
CTGTATCC | 0.207
CCGTTGGC | 0.0332

Sequence | PBM E-score
ATAAACGC | 0.104
CAAGCTCG | -0.231
GCTAAGAC | -0.103
CGTTGCAA | -0.151
AATCTCTA | 0.0126
ATACCCTA | -0.245
CGTGGGGA | 0.0446
AGGGCCAT | -0.0677
AGCCCTGC | -0.00124
GTTCGTCA | -0.227
TAAACCGA | -0.235
CTAGGGCC | -0.236
CCGATCAC | -0.0358
CAGATGAG | 0.0921
ATCGGTTC | 0.0137
AGCCTTCC | -0.163
TACGGCTA | -0.144
AGCCATGG | -0.041
AACGGCTT | 0.0183
CTCATGTC | 0.0304
GCAGGTGA | -0.0333
ACTTAGGA | 0.148
GTAGTTAA | 0.046
GCCTTTGA | -0.0776
GGAGCCCA | 0.349

Sequence | PBM E-score
GACTGTAA | 0.0401
GGGGCCAA | 0.0277
AGAGCTGG | -0.143
AGCACGCG | 0.115
ACTCATTG | -0.0594
AGCTTGGC | -0.112
GGGAGTAA | -0.0474
AGGGGTAC | -0.0702
CTATTCAA | 0.039
GTGACACA | 0.0534
ACCGGGAA | 0.114
CAGACGCG | 0.136
AGCTCCGA | 0.0227
CCGCTAAG | 0.0943
CGGGCCCG | 0.0511
AGTAGATG | 0.148
CAGGCCAC | -0.244
ATGTAAGC | -0.0373
TATTATCA | 0.064
CAATGACG | -0.168
AGGCCTTA | -0.194
ACGAACAC | 0.0367
AGTGGCTA | -0.0284
GAGATTCA | -0.0394
TGGAAACA | 0.132

Sequence | PBM E-score
GTAATCGA | -0.119
CCTAAAGA | 0.169
AAATCCTG | 0.022
CACCGTAC | 0.125
AAGCGTCT | 0.168
CTACGTAG | -0.0317
GGATTTTA | 0.0994
TCTAATCA | 0.0699
CATGCTTA | -0.258
ATCATGAC | -0.137
ATGAGAAC | 0.0361
ACCGTAAT | 0.121
GATGTCAC | -0.0837
AATAGACC | -0.0724
ACAAGCGG | 0.172
CGGAACTC | -0.0112
CCAGCCGA | -0.0834
ACTATCAA | 0.0353
CTCGTTTA | 0.159
CGTTTCCA | 0.104
CAGGACTA | 0.157
CGATTTCA | -0.0176
CAACTATG | -0.0341
CCCTTGAC | -0.259
CTCTGCAG | -0.212

Sequence | PBM E-score
CTTTTTAA | 0.0645
CGGCGTCA | 0.0965
AAGATCTT | -0.262
CCCATCTC | -0.0861
CTCCGTAA | -0.00067
CGCACAGA | 0.0152
CGCGACAG | 0.0277
AAGCGGAG | -0.13
GAGGCCCA | 0.025
AGCCCCTA | -0.0303
ACAGTGAA | -0.0758
GACCTGAC | -0.16
AGAGGGCG | -0.00957
GTAGGAGA | -0.0194
CCCAGTAG | 0.0415
GGCATAAA | 0.0465
AAAGACAG | -0.0683
CCTACTCA | -0.0585
CGTTTCCC | -0.0165
CTCGAGAG | -0.243
GGATAACC | -0.0798
AAGTTATC | -0.0108
TGAACTAA | 0.0215
AATGTACC | 0.191
CCATGGTA | -0.096

Sequence | PBM E-score
CATCCTGA | 0.292
ACGGTGAG | -0.174
GAGATCGC | -0.18
ACATCCCC | 0.0757
AGAAACGA | -0.066
ATGCCCCG | 0.019
ACACGTTG | -0.0769
CCTCTGAG | -0.284
TACCGCAA | -0.254
CCCCCAAA | 0.22
ACGTGTCA | -0.138
TCTGCGAA | -0.154
ACAGTTCT | -0.217
CGAGCAAG | -0.139
CTACGCGC | 0.0481
GCGATTGA | -0.137
TAAGGCCA | -0.253
GCGGTGAC | -0.0909
AACAGAAG | 0.143
GCGGGGCA | -0.0439
CAGCTTTC | -0.0293
CTACTCAA | 0.00014
AAGGCACC | 0.15
CCGTGTAA | -0.066
CCACAAGC | 0.0911

Sequence | PBM E-score
CAACGCCG | -0.159
ACTCAGTA | -0.114
GACTCAGC | -0.0526
ACTCCGAG | 0.0158
CGCCGTAC | -0.0824
GACGACCC | -0.0692
GCATCTAC | 0.263
CTGCTCTC | -0.134
CATTTATC | -0.0711
AACTCCCT | -0.173
ACAAAACC | 0.0617
GACAGATC | -0.235
ACTCAATG | -0.0119
ACGATTCT | 0.00313
GTTTTATA | 0.0312
GAGGGTAA | -0.157
ACCTCGGG | 0.104
CAGGTCGC | 0.155
CGGGGTAC | 0.00884
ACTGTAGA | -0.079
ATGGGTTC | 0.0375
AGGGTATA | -0.176
